Test results reported in PubChem BioAssay AID686971 (National Center for Advancing Translational Sciences (NCATS), 2013).
Several values for one entry are separate records, joined by “and”; a condition that tells them apart may be missing. Equal entries are not always repeated. Out of some 360,000 compounds screened, about 7,500 (2.1%) were called active. Inconclusive means that the source gave no clear call. Such entries were picked first, then a sample of the others. Calls follow the shape of the dose curve; as a rule, active = well fitted cell-killing curve with a large enough effect; inconclusive = small, poorly fitted or top-dose-only effect, or effect the other way, or another doubt; inactive = no such curve, though single readings can be large or run the other way. Potencies of inconclusive entries are doubtful fits and often do not repeat.
Potency is read from the fitted curve at half-maximal effect; tags tell the direction and shape of the fitted curve.

Assay: qHTS for induction of synthetic lethality in tumor cells producing 2HG: qHTS for the HT-1080-IDH1KD cell line;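 as to activity, negative = toxicity: 0% = DMSO wells and -100% = cell-free medium wells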
Settings: HT-1080 IDH1 knockdown viability, ATP luminescence, 48 h; activity, negative = toxicity: at 46.1 µM (top of the series) unless noted
In short: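 % activity derives from luminescence (CellTiter-Glo), normalised to DMSO and no-cell wells. HT-1080-IDH1KD cells, 750/well, had 48 h compound exposure at 37 °C.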
For `COc1ccc(OC)c(NC(=O)CN(Cc2ccc(F)cc2)C2CCCCC2)c1`, the Potency was inconclusive: 8.2 µM [cytotoxic, partial curve].
For `Cn1c(CN2CCN(c3ccc(Cl)cc3)CC2)nc2ccccc21`, the Potency was inconclusive: 20 µM [cytotoxic, single point].
With `CCN(c1ccccc1)S(=O)(=O)c1ccc(C(=O)Nc2nnc(C3CC3)o2)cc1` the Potency was inconclusive: 25.9 µM [cytotoxic, single point].
With `CC(=O)c1ccc(NC(=O)Nc2cccc(Cl)c2)cc1` the Potency was inconclusive: 23.1 µM [cytotoxic, single point].
In the case of `CC(CC(=O)O)C(=O)c1ccc(Cl)c([N+](=O)[O-])c1` (centres undefined), the “activity, negative = toxicity” value was inactive: 2.94%.
In the case of `Cc1ncc(CO)c(/C=N/NC(=O)c2cc3c(s2)CCCC3)c1O`, the Potency was active: 2.59 µM.
In the case of `COc1ccc(S(=O)(=O)N(C)C)cc1NC(=O)c1ccc2c(c1)NC(=O)C(C)S2` (centres undefined), the “activity, negative = toxicity” value was inactive: 1.41%.
In the case of `Cc1cc2occ(CC(=O)NC3=NCCS3)c2cc1C(C)C`, the Potency was inconclusive: 35.5 µM [cytotoxic, single point].
With `Cc1csc(NC(=O)c2sc3nc(-c4cccs4)ccc3c2N)n1` the Potency was inconclusive: 12.6 µM [cytotoxic, single point].
In the case of `CCOC(=O)N1CCN(C(=O)CCN2C(=O)/C(=C\c3ccccc3OC)SC2=S)CC1`, the “activity, negative = toxicity” value was inactive: 12%.
In the case of `O=C(COc1ccc(-n2cnnn2)cc1)Nc1cc(Cl)cc(Cl)c1`, the Potency was inconclusive: 23.1 µM [cytotoxic, single point].
With `COc1cccc2c1C(=O)C=C(C)C2=O` the Potency was inconclusive: 20.6 µM [cytotoxic, single point].
In the case of `CCC(=O)Nc1ccc(S(=O)(=O)N2CCC(c3nc4ccccc4[nH]3)CC2)cc1`, the “activity, negative = toxicity” value was inactive: -12.9%.
In the case of `CCOC(=O)NC(=O)/C(C#N)=N/Nc1c(F)cccc1F`, the “activity, negative = toxicity” value was inactive: 9.89%.
For `Cc1ccccc1OCCCN1C(=O)C(=O)c2cccc(C)c21`, the Potency was inconclusive: 29.1 µM [cytotoxic, single point].
In the case of `CCCCCc1cc(=O)oc2c(C(CCN3CCCCC3)c3ccc4c(c3)OCO4)c(OC)cc(OC)c12` (centres undefined), the Potency was inconclusive: 20.6 µM [cytotoxic, single point].
In the case of `COc1ccc(C(=O)Nc2cnn(Cc3c(F)cccc3Cl)c2)cc1OC`, the Potency was inconclusive: 3.26 µM [cytotoxic, full curve, poor fit].
In the case of `COC(=O)c1cc(NC(=O)Cc2cc(OC)c(OC)c(OC)c2)cc(C(=O)OC)c1`, the “activity, negative = toxicity” value was inactive: 1.15%.
With `CCN(CC)CCCN=Cc1c(O)n(Cc2ccccc2)c(=O)c2ccccc12` the Potency was inconclusive: 23.1 µM [cytotoxic, partial curve].
For `O=C(c1cc2sccc2n1Cc1ccc(F)cc1)N1CCN(c2nc3ccccc3s2)CC1`, the Potency was inconclusive: 20.6 µM [cytotoxic, single point].
In the case of `O=C(CCc1nc2ccccc2c(=O)[nH]1)NCc1cccc(Cl)c1`, the Potency was inconclusive: 18.4 µM [cytotoxic, single point].
With `Cc1nn(Cc2ccccc2)c(Cl)c1C(=O)OC(C)C#N` (centres undefined) the Potency was inconclusive: 18.4 µM [cytotoxic, single point].
For `O=S(=O)(c1ccc(NC(=S)NCc2cccnc2)cc1)N1CCCCC1`, the Potency was active: 10.3 µM.
For `O=C(Nc1nc(-c2ccccn2)cs1)c1ccc([N+](=O)[O-])o1`, the Potency was inconclusive: 20.6 µM [cytotoxic, single point].
For `COc1ccc(CCN2CC(C(=O)Nc3cc(F)ccc3F)CC2=O)cc1OC` (centres undefined), the “activity, negative = toxicity” value was inactive: -11.2%.
In the case of `Cc1ccc(C)c2[nH]c(=O)c(C(c3nnnn3Cc3ccco3)N3CCc4ccccc4C3)cc12` (centres undefined), the Potency was inconclusive: 18.4 µM [cytotoxic, single point].
For `CC1(C(=O)NCc2cccc3ccccc23)CCN1Cc1cccc2c1OCO2` (centres undefined), the Potency was inconclusive: 20.6 µM [cytotoxic, single point].
For `COc1cc(C(=O)Nc2ccccc2C(=O)NCc2cccnc2)cc(OC)c1OC`, the “activity, negative = toxicity” value was inactive: 3.08%.
With `CCS(=O)(=O)CCn1c([N+](=O)[O-])cnc1C` the “activity, negative = toxicity” value was inactive: 3.04%.
In the case of `COc1cccc(Nc2nc(N)c([N+](=O)[O-])c(NCc3ccccc3)n2)c1`, the Potency was inconclusive: 20.6 µM [cytotoxic, single point].
With `Clc1ccc(-n2c(SCc3nc4ccccc4[nH]3)nnc2-c2ccncc2)cc1` the Potency was inconclusive: 10 µM [cytotoxic, partial curve].
For `CCOC(=O)/C=C/C(=O)Nc1ccccc1-c1ccccc1NC(=O)/C=C/C(=O)OCC`, the Potency was active: 23.1 µM.
For `COc1cc(/C=C2/C(=O)NN(c3cccc(C)c3)C2=O)ccc1OC(=O)c1ccco1`, the Potency was inconclusive: 23.1 µM [cytotoxic, single point].
For `CCOC(=O)C1CCCN(C(=O)c2cc(Nc3ccc(OC)c(OC)c3)nc3ccccc23)C1` (centres undefined), the “activity, negative = toxicity” value was inactive: -11.9%.
With `CC(C)(C)OC(=O)C[C@@H]1C/C=C\C[C@H](CC(=O)N[C@H](CO)Cc2ccccc2)C(=O)N[C@@H](Cc2c[nH]c3ccccc23)COC1=O` the “activity, negative = toxicity” value was inactive: -3.12%.
For `CN(C)c1ccc(NC2=C(Cl)C(=O)c3ccccc3C2=O)cc1`, the Potency was active: 2.31 µM.
In the case of `C=C(C)c1cccc(C(C)(C)NC(=O)NNC(=O)c2ccccc2O)c1`, the activity, negative = toxicity was inconclusive: -30.6% [cytotoxic].
In the case of `COc1ccc(-c2coc3c(C(=O)NC4CCCCC4)cccc23)c(C)c1`, the Potency was inconclusive: 23.1 µM [cytotoxic, single point].
In the case of `Cc1occc1C(=O)NC(C)C1CCCO1` (centres undefined), the activity, negative = toxicity was inconclusive: 32.5%.
In the case of `CC(O)(c1ccccc1)c1nc(/C=C/c2ccccc2)cs1` (centres undefined), the Potency was inconclusive: 23.1 µM [cytotoxic, single point].
In the case of `COc1cccc(-c2nc(NC3CCCC3)c3ccccc3n2)c1O`, the Potency was inconclusive: 29.1 µM [cytotoxic, single point].
In the case of `COC(=O)c1ccc2nc(NC(=O)C(C)(C)C)sc2c1`, the Potency was inconclusive: 14.6 µM [cytotoxic, partial curve].
For `CCOc1cc(/C=C2\C(=O)N(Cc3ccc(C)cc3)C(C)=C2C(=O)OC)ccc1O`, the Potency was inconclusive: 23.1 µM [cytotoxic, single point].
In the case of `CCN(CC(=O)NC(C)(C)C)Cc1nc2c(Br)cc(Br)cc2c(=O)[nH]1`, the Potency was inconclusive: 10.3 µM [cytotoxic, partial curve].
With `COC(=O)N/N=C/c1c(C)nn(-c2cccc(Cl)c2)c1Cl` the Potency was inconclusive: 29.1 µM [cytotoxic, single point].
In the case of `C=CC(=O)Nc1ccc(CN2C(=O)N(c3c(Cl)c(OC)cc(OC)c3Cl)Cc3cnc(NCCCCN(CC)CC)nc32)cc1`, the Potency was active: 14.6 µM.
With `CSCCOC(=O)c1[nH]c2c(c1C)C(=O)CC(c1ccco1)C2` (centres undefined) the Potency was active: 2.31 µM.
For `CC(=O)c1cccc(NS(=O)(=O)c2ccc(N/C=C\C(=O)c3ccc(F)cc3)cc2)c1`, the “activity, negative = toxicity” value was inactive: -24.4%.
In the case of `COc1cccc(-c2nn(C)c3sc(C(=O)N4CCN(c5ccccn5)CC4)cc23)c1`, the Potency was inconclusive: 20.6 µM [cytotoxic, single point].
With `O=C(Nc1nncs1)C1c2ccccc2Oc2ccccc21` the Potency was inconclusive: 35.5 µM [cytotoxic, single point].
For `Cn1nccc1-c1coc2c(C(=O)NCC3CCOCC3)cccc12`, the “activity, negative = toxicity” value was inactive: 12.9%.
With `OCc1ccccc1SSc1ccccc1CO` the Potency was inconclusive: 23.1 µM [cytotoxic, single point].
With `O=S(=O)(c1ccccc1)N(CC1CO1)c1cccc2ccccc12` (centres undefined) the Potency was inconclusive: 14.6 µM [cytotoxic, partial curve].
With `Cc1n[nH]c(C)c1S(=O)(=O)N1CCN(C2CCCCC2)CC1` the “activity, negative = toxicity” value was inactive: -0.184%.
In the case of `CCCCOc1cc(C(=O)NCCN(CC)CC)c2ccccc2n1`, the Potency was inconclusive: 29.1 µM [cytotoxic, single point] and inconclusive: 20.6 µM [cytotoxic, single point].
For `N/C(CC(=O)NC1CCCCC1)=N\OCC(=O)Nc1ccc(Cl)c(Cl)c1`, the “activity, negative = toxicity” value was inactive: -19.1%.
With `O=[N+]([O-])c1ccc(Oc2c(F)c(F)nc(N3CCCC3)c2F)cc1` the “activity, negative = toxicity” value was inactive: 8.65%.
For `COc1ccccc1N1CCN(/N=C\C(Br)=C\c2ccccc2)CC1`, the Potency was inconclusive: 29.1 µM [cytotoxic, single point].
With `COc1cccc(CNC(=O)C(=O)NCCC2CCCCN2S(=O)(=O)c2ccc(C)cc2)c1` (centres undefined) the Potency was inconclusive: 20.6 µM [cytotoxic, single point].
With `Cn1c(N)c(C(=O)COC(=O)c2ccccc2C(=O)c2ccc(Cl)c([N+](=O)[O-])c2)c(=O)n(C)c1=O` the Potency was inconclusive: 16.4 µM [cytotoxic, single point].
With `Cc1ccc(NC(=O)Nc2c(Cl)cccc2Cl)cn1` the “activity, negative = toxicity” value was inactive: -9.14%.
In the case of `CCOc1ccc(N(Cc2cc3ccc(C)cc3[nH]c2=O)S(=O)(=O)c2ccccc2)cc1`, the Potency was inconclusive: 29.1 µM [cytotoxic, single point].
With `Cc1ccccc1NC(=S)NCc1ccccc1` the “activity, negative = toxicity” value was inactive: 12%.
For `O=C1CC(c2ccccc2)CC(O)=C1C=NC1CCCCC1` (centres undefined), the Potency was inconclusive: 25.1 µM [cytotoxic, single point].
For `CCn1c(/C=C/c2ccc(O)c(O)c2)nc2ccccc2c1=O`, the “activity, negative = toxicity” value was inactive: -23.7%.
With `O=[N+]([O-])c1c(Nc2ccccc2O)cc(N2CCOCC2)c2nonc12` the Potency was inconclusive: 25.9 µM [cytotoxic, partial curve].
For `COc1cc(C2(C)SCCCS2)cc(OC)c1OC`, the Potency was inconclusive: 18.4 µM [cytotoxic, single point].
With `CCOC(=O)C1CCN(C(=O)Cn2nc(C)n3nc(-c4ccc(CC)cc4)cc3c2=O)CC1` the “activity, negative = toxicity” value was inactive: 0.353%.
For `CCN(CC)C(=O)[C@H]1C[C@H](CC(=O)NCc2cccc(C(F)(F)F)c2)C(=O)N2CCc3c([nH]c4cc(-c5ccco5)ccc34)[C@]12C`, the Potency was inconclusive: 29.1 µM [cytotoxic, single point].
